Measured values as given in PubChem BioAssay AID588342 (National Center for Advancing Translational Sciences (NCATS), 2011).
Screen size: about 360,000 compounds; about 25,000 (6.9%) were called active. The inconclusive results got no clear call from the source; some entries with a clear call stand among them for comparison. Calls come from the whole dose curve; as a rule, active = well fitted inhibition curve with a large enough effect; inconclusive = small, poorly fitted or top-dose-only effect; inactive = flat fitted curve, though single readings scatter. Potencies of inconclusive entries are doubtful fits and often do not repeat.

The compounds below were run against Luciferin 4-monooxygenase (Photinus pyralis) (UniProt P08659) (assay: qHTS profiling assay for firefly luciferase inhibitor/activator using purifed enzyme and Km concentrations of substrates (counterscreen for miR-21 project)). Settings: purified FLuc, luminescence inhibition; series mostly up to 57.5 µM.
UniProt P08659, sequence (P08659 whole entry, looked up): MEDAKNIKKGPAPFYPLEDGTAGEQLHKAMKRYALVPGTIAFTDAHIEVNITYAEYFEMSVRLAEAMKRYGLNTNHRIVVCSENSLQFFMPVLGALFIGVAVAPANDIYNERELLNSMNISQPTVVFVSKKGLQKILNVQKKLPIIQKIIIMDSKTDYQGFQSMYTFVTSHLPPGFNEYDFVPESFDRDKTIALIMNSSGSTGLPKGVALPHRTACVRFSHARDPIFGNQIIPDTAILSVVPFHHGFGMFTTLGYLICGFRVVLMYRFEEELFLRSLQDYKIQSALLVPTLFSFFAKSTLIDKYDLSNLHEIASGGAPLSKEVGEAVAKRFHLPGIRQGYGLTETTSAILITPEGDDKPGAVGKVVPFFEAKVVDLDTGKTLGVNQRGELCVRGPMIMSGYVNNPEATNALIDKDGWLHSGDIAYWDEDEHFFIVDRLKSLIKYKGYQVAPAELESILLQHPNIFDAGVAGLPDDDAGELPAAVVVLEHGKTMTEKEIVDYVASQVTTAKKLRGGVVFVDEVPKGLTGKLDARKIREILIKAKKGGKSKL
In short: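 Biochemical qHTS of compounds, final roughly 60 µM downward over six points, against 10 nM purified firefly luciferase using Km concentrations of substrates (10 uM D-luciferin, 10 uM ATP) in Tris acetate pH 7.5 buffer; luminescence output.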
Note: nearly all actives have a fitted effect of over 55% in size.
Potency is the fitted concentration of half-maximal effect; tags give direction and shape of the fitted curve.

Structure (SMILES)	Potency
Nc1ccccc1SC/C=C/CSc1ccccc1N	inconclusive: 26.9 µM [inhibitor, single point]
NC(=O)C1CCN(c2nc(-c3cccc(Br)c3)cs2)CC1	inconclusive: 33.8 µM [inhibitor, single point]
COc1ccccc1N(O)C1CC(=O)N(c2ccc(Br)cc2)C1=O (centres undefined)	inconclusive: 26.9 µM [inhibitor, partial curve, poor fit]
c1ccc2c(c1)nc(N1CCOCC1)c1ccccc12	inconclusive: 30.1 µM [inhibitor, partial curve, poor fit]
COc1cc2cc(C(=O)N/N=C/c3ccc(F)cc3)[nH]c2cc1OC	inconclusive: 26.9 µM [inhibitor, partial curve]
CC1Cc2ccccc2N1C(=O)COC(=O)CCc1nc2ccccc2c(=O)[nH]1 (centres undefined)	inactive
COc1ccc2c(Cl)c(-c3nnc4n3CCCCC4)sc2c1	inconclusive: 10.7 µM [inhibitor, partial curve, poor fit]
O=C1CCn2nc(-c3ccc(Cl)cc3)cc2N1	active: 19 µM
O=C(Cc1cccs1)Nc1nc(-c2ccc(F)c(F)c2)cs1	inconclusive: 21.3 µM [inhibitor, single point]
CN(C)c1ccc(/C(=N\O)c2ccccc2)cc1	inconclusive: 26.9 µM [inhibitor, single point]
CCn1cnc2cc(NS(=O)(=O)c3ccc(OC)c(OC)c3)ccc21	inactive
CCOC(=O)c1cc(-c2ccc(F)cc2)n(CCC(=O)NC2CCCCC2)c1C	inactive
O=c1c2ccccc2nnn1Cc1nnc(-c2ccccc2Br)o1	inconclusive: 26.9 µM [inhibitor, partial curve, poor fit]
Cc1ccc(CS(=O)Cc2ccc(C(=O)NCc3ccccc3Br)o2)cc1 (centres undefined)	inconclusive: 30.1 µM [inhibitor, partial curve, poor fit]
C=CCn1c(=NC(=O)c2ccco2)sc2cc(C(=O)OC)ccc21	inconclusive: 8.49 µM [inhibitor, partial curve]
Nc1nc(Nc2ccccc2)nc2ccccc12	active: 1.35 µM
C#CCn1cc(/C=C2\NC(=O)NC2=O)c2ccccc21	inactive
COc1ccc(CNC(=O)C(c2cccs2)N(Cc2ccco2)C(=O)Cc2cccs2)cc1 (centres undefined)	inactive
O=C(COC(=O)c1ccccc1[N+](=O)[O-])c1ccc2c(c1)OCO2	active: 0.019 µM
O=S(=O)(N/N=C1/CC(c2ccccc2)Oc2ccccc21)c1ccc(Br)cc1 (centres undefined)	inconclusive: 30.1 µM [inhibitor, single point]
CCOC(=O)c1[nH]c2cc(OC)c(OC)cc2c1N	inconclusive: 37.9 µM [inhibitor, partial curve, poor fit]
CN(C)C(=O)c1c(NC(=O)c2ccco2)sc2c1CCCCC2	inconclusive: 37.9 µM [inhibitor, partial curve, poor fit]
Cc1c(CNC(=O)C2CC2)c(-n2cccc2)n(Cc2ccccc2)c1C	inactive

Structure (SMILES)	Potency
Cc1nc(C)c(-c2ccc(SCc3cccc(F)c3)nn2)s1	inconclusive: 23.9 µM [inhibitor, single point]
COc1ccc(/C=C/C(=O)C(C(N)=O)=C2SCCS2)cc1	active: 9.53 µM
Cc1ccc(-c2noc(C3CCCN(C(=O)c4ccccc4Br)C3)n2)cc1 (centres undefined)	inconclusive: 26.9 µM [inhibitor, single point]
O=C(O)c1cccc(NC(=S)N/N=C/c2cccc(O)c2)c1	active: 2.13 µM
CCOCC(=O)Nc1nnc(C2CCCCC2)s1	inconclusive: 23.9 µM [inhibitor, single point]
COc1ccccc1CC(=O)Nc1cccc(C(=O)Nc2nccs2)c1	inconclusive: 8.49 µM [inhibitor, partial curve, poor fit]
CC(=O)c1c(C)[nH]c(C(=O)COC(=O)c2nccnc2N)c1C	inconclusive: 23.9 µM [inhibitor, partial curve, poor fit]
COc1ccc(C)cc1NC(=O)NCc1ccc(F)cc1	inconclusive: 16.9 µM [inhibitor, partial curve]
Cc1ccccc1-c1cc(=O)c2c(O)cccc2o1	inconclusive: 23.9 µM [inhibitor, partial curve, poor fit]
CCCCn1nc(NC(=O)c2cccs2)c2cc3cc(OC)ccc3nc21	active: 19 µM
CC(C)CCN(C(=O)c1csnn1)C(C(=O)NC1CCCCC1)c1ccc(F)cc1 (centres undefined)	inconclusive: 26.9 µM [inhibitor, single point]
O=C1C([N+](=O)[O-])=C(O)c2cccc3cccc1c23	inconclusive: 37.9 µM [inhibitor, single point]
C=CCN1C(=O)/C(=c2\sc3nc(=O)c(Cc4ccc(OC)c(OC)c4)nn3c2=O)c2ccccc21	inconclusive: 33.8 µM [inhibitor, partial curve, poor fit]
CCCCc1nc2cc(C(=O)N3CCC(OC)CC3)ccc2o1	inconclusive: 23.9 µM [inhibitor, single point]
COCCn1c(C)cc(/C=C2/NC(=O)N(c3cccc(Cl)c3)C2=O)c1C	inconclusive: 15.1 µM [inhibitor, partial curve]
N/C(=N\OC(=O)/C=C/c1ccccc1Cl)c1cccnc1	active: 7.57 µM
COc1ccc(-c2cc(C(F)(F)F)n3nc(C(=O)N4CCCCC4)cc3n2)cc1OC	inconclusive: 37.9 µM [inhibitor, partial curve, poor fit]
O=[N+]([O-])c1cc(-c2nc(-c3ccncc3)no2)ccc1NCc1ccccc1	inconclusive: 10.7 µM [inhibitor, partial curve]
O=C(c1cn(CCOc2ccc(Cl)cc2)c2ccccc12)C1CCCCC1	inactive
O=C(NC(=S)N1CCCc2ccccc21)c1ccco1	inconclusive: 30.1 µM [inhibitor, single point]
COc1ccc(N2CCN(C(=O)CCCSc3nc4ccccc4[nH]3)CC2)cc1	inactive
CCOc1ccc2c(c1)C(C)=CC(C)(C)N2S(=O)(=O)c1ccc(NC(C)=O)cc1	inactive
Cc1ccc(/C=C/C(=O)Nc2cccc(S(=O)(=O)N3CCOCC3)c2)o1	inconclusive: 23.9 µM [inhibitor, partial curve]

Structure (SMILES)	Potency
COc1ccc2nc(NC(=O)CN3C(=O)NC4(CCCC4)C3=O)sc2c1	active: 12 µM
CCCCN(C)C(=O)CCCc1c[nH]c2ccccc12	inconclusive: 23.9 µM [inhibitor, single point]
COCCCN(C(=O)c1cc2c(s1)CCC2)c1c(N)n(Cc2ccccc2)c(=O)[nH]c1=O	inconclusive: 13.5 µM [inhibitor, partial curve, poor fit]
COc1ccc(-c2cc(-c3ccc(OC)cc3)[nH]n2)cc1	active: 8.49 µM
CCc1ccc(NC(=O)CSc2nc3ncccc3[nH]2)cc1	inconclusive: 19 µM [inhibitor, partial curve, poor fit]
Cc1c(-c2ccc(OCc3ccccc3)cc2)nc2ccccc2c1C(=O)O	active: 21.3 µM
Cc1ccc(Cl)c(Cn2cnc3c(cnn3C(C)(C)C)c2=O)c1F	inconclusive: 20 µM [inhibitor, partial curve, poor fit]
CCc1ccccc1N1CSC2=C(C#N)C(c3ccccc3F)CC(=O)N2C1 (centres undefined)	inconclusive: 13.5 µM [inhibitor, partial curve]
COc1ccc(OC)c(/C=N/NC(=O)c2ccc3nc[nH]c3c2)c1	inconclusive: 23.9 µM [inhibitor, single point]
O=C(CSc1nnc2ccccn12)c1ccc2c(c1)OCCO2	active: 4.78 µM
COc1ccc2cc(-c3[nH]ncc3CNCCn3nc(C)cc3C)ccc2c1	inconclusive: 19 µM [inhibitor, partial curve]
CC(C)Cn1c(O)c2ccc(C(=O)N=NC(=O)c3cccnc3)cc2c1O	inconclusive: 37.9 µM [inhibitor, partial curve, poor fit]
Cc1ccc(NC(=O)NCc2ccc3[nH]c(C)cc3c2)cc1	inconclusive: 30.1 µM [inhibitor, single point]
CC(C)(C)C(=O)OC1=CN(Cc2ccccc2)S(=O)(=O)c2ccccc21	inactive
CCOC(=O)c1ccc(-c2ccc(/C=C(\C#N)C(=O)Nc3ccc(C)cc3OC)o2)cc1	inactive
O=C(CC1CS(=O)(=O)CC1CC(=O)Nc1ccc2c(c1)OCCO2)Nc1ccc2c(c1)OCCO2 (centres undefined)	active: 16.9 µM
O=C(CSc1nnc(NC(=O)C2CC2)s1)Nc1ccc2c(c1)OCCO2	inconclusive: 15.1 µM [inhibitor, partial curve, poor fit]
O=C1N=C(N2C=CC(=C3C=CNC=C3)C=C2)/C(=C/N=NC(=O)c2ccccc2O)S1	inconclusive: 23.9 µM [inhibitor, partial curve, poor fit]
CCC(C)(C)NC(=O)CN(C(=O)CCC(=O)Nc1nccs1)c1cccc(C)c1C	inactive
Cc1csc(Nc2ccccc2C(F)(F)F)n1	inconclusive: 23.9 µM [inhibitor, partial curve]
Cc1ccc(CC(=O)O/N=C(\N)c2cccc([N+](=O)[O-])c2)cc1	inconclusive: 21.3 µM [inhibitor, single point]
CSc1ccc(-c2nc(CN3CCCCC3c3cccnc3)c(C)o2)cc1 (centres undefined)	inactive
CS(=O)(=O)N1CCc2cc(C(=O)Nc3cccc(F)c3)ccc21	inconclusive: 19 µM [inhibitor, partial curve]
